Each compound was assayed against human Cav2.2 (Homo sapiens, UniProt Q00975) (assay: In vitro assessment of calcium channel activity using FLIPR (Ca2+ influx in IMR32 cells)). Details: IMR32 cells endogenously expressing human Cav2.2; 60 minute pre-incubation; 2 μM nifedipine; depolarized with 80 mM KCl; average of at least two runs unless marked (*).
Format: cell-based

SMILES	IC50
O=C(Cc1ccc(C(F)(F)F)c(F)c1)N1CCN2C[C@H](Oc3cnc(C4CC4)cn3)C[C@H]2C1 [Example 146, 1-[(7R,8aS)-7-[(5-cyclopropylpyrazin-2-yl)oxy]hexahydropyrrolo[1,2-a]pyrazin-2(1H)-yl]-2-[3-fluoro-4-(trifluoromethyl)phenyl]ethanone]	740 nM
O=C(N[C@H]1C[C@H]2CN(C(=O)c3cccnc3)CCN2C1)c1cccc(C(F)(F)F)c1 [Example 13, N-[(7S,8aS)-2-(pyridin-3-ylcarbonyl)octahydropyrrolo[1,2-a]pyrazin-7-yl]-3-(trifluoromethyl)benzamide]	> 30000 nM
O=C(c1cccc(N2CCCC2)c1)N1CCN2C[C@H](Oc3cnc(C4CC4)cn3)C[C@H]2C1 [Example 111, [(7R,8aS)-7-[(5-cyclopropylpyrazin-2-yl)oxy]hexahydropyrrolo[1,2-a]-pyrazin-2(1H)-yl][3-(pyrrolidin-1-yl)phenyl]methanone]	4300 nM
O=C(c1ccc(F)c(Cl)c1F)N1CCN2C[C@H](Oc3cnc(C4CC4)cn3)C[C@H]2C1 [Example 84, (3-chloro-2,4-difluorophenyl)[(7R,8aS)-7-[(5-cyclopropylpyrazin-2-yl)-oxy]hexahydropyrrolo[1,2-a]pyrazin-2(1H)-yl]methanone]	5080 nM
O=C(Oc1cccc(C(F)(F)F)c1)N1CCN2C[C@H](Oc3cnc(C4CC4)cn3)C[C@H]2C1 [Example 113, 3-(trifluoromethyl)phenyl (7R,8aS)-7-[(5-cyclopropylpyrazin-2-yl)oxy]-hexahydropyrrolo[1,2-a]pyrazine-2(1H)-carboxylate]	1620 nM
FC(F)(F)c1cccc(N[C@H]2C[C@H]3CN(c4ccc(Cl)cn4)CCN3C2)n1 [Example 40, (7S,8aS)-2-(5-chloropyridin-2-yl)-N-[6-(trifluoromethyl)pyridin-2-yl]-octahydropyrrolo[1,2-a]pyrazin-7-amine]	5630 nM
O=C1[C@H]2C[C@@H](Oc3cnc(C4CC4)cn3)CN2CCN1c1ccc(C(F)(F)F)cn1 (single isomer, unassigned) [Example 172]	9400 nM
C=C(C)c1cnc(O[C@@H]2C[C@H]3CN(C(=O)Cc4cccc(C(F)(F)F)c4)CCN3C2)cn1 [Example 152, 1-[(7R,8aS)-7-{[5-(prop-1-en-2-yl)pyrazin-2-yl]oxy}hexahydropyrrolo[1,2-a]pyrazin-2(1H)-yl]-2-[3-(trifluoromethyl)phenyl]ethanone]	1240 nM
O=C([C@H](NC(=O)C(F)(F)F)c1cccc(C(F)(F)F)c1)N1CCN2C[C@H](Oc3cnc(C4CC4)cn3)C[C@H]2C1 [Example 212, N-{(1R)-2-[(7R,8aS)-7-[(5-cyclopropylpyrazin-2-yl)oxy]hexahydropyrrolo-[1,2-a]pyrazin-2(1H)-yl]-2-oxo-1-[3-(trifluoromethyl)phenyl]ethyl}-2,2,2-trifluoro-acetamide]	1180 nM
O=C(Cc1ccc(F)cc1)N1CCN2C[C@H](Oc3cnc(C4CC4)cn3)C[C@H]2C1 [Example 138, 1-[(7R,8aS)-7-[(5-cyclopropylpyrazin-2-yl)oxy]hexahydropyrrolo[1,2-a]pyrazin-2(1H)-yl]-2-(4-fluorophenyl)ethanone]	10600 nM
O=C(CCCC(F)(F)F)N1CCN2C[C@@H](Nc3ccc(C(F)(F)F)cn3)C[C@H]2C1 [Example 23, 5,5,5-trifluoro-1-[(7S,8aS)-7-{[5-(trifluoromethyl)pyridin-2-yl]amino}-hexahydropyrrolo[1,2-a]pyrazin-2(1H)-yl]pentan-1-one]	16800 nM
O=C(c1cc(F)cc(F)c1)N1CCN2C[C@H](Oc3cnc(C4CC4)cn3)C[C@H]2C1 [Example 83, [(7R,8aS)-7-[(5-cyclopropylpyrazin-2-yl)oxy]hexahydropyrrolo[1,2-a]-pyrazin-2(1H)-yl](3,5-difluorophenyl)methanone]	6280 nM
O=C(C(c1cccc(C(F)(F)F)c1)N1CCOCC1)N1CCN2C[C@H](Oc3cnc(C4CC4)cn3)C[C@H]2C1 (stereo partly drawn) [Example 177, 1-[(7R,8aS)-7-[(5-cyclopropylpyrazin-2-yl)oxy]hexahydropyrrolo[1,2-a]-pyrazin-2(1H)-yl]-2-(morpholin-4-yl)-2-[3-(trifluoromethyl)phenyl]ethanone]	1920 nM

Second part, the compound after the results:

IC50	SMILES
920 nM	O=C(c1ccc(Cl)c(OC(F)(F)F)c1)N1CCN2C[C@H](Oc3cnc(C4CC4)cn3)C[C@H]2C1 [Example 133, [4-chloro-3-(trifluoromethoxy)phenyl][(7R,8aS)-7-[(5-cyclopropylpyrazin-2-yl)oxy]hexahydropyrrolo[1,2-a]pyrazin-2(1H)-yl]methanone]
8300 nM	O=C1[C@H]2C[C@@H](Oc3cnc(C4CC4)cn3)CN2CCN1c1cccc(C(F)(F)F)n1 (single isomer, unassigned) [Example 173]
4640 nM	FC(F)(F)c1cccc(O[C@@H]2C[C@H]3CN(c4cccc(C(F)(F)F)n4)CCN3C2)n1 [Example 87, (7R,8aS)-2-[6-(trifluoromethyl)pyridin-2-yl]-7-{[6-(trifluoromethyl)pyridin-2-yl]oxy}octahydropyrrolo[1,2-a]pyrazine]
1930 nM	FC(F)(F)c1cccc(N2CCN3C[C@@H](Nc4ccc(Cl)cn4)C[C@H]3C2)n1 [Example 37, (7S,8aS)-N-(5-chloropyridin-2-yl)-2-[6-(trifluoromethyl)pyridin-2-yl]-octahydropyrrolo[1,2-a]pyrazin-7-amine]
990 nM	O=C(C(NC(=O)C(F)(F)F)c1ccc(C(F)(F)F)cc1)N1CCN2C[C@H](Oc3cnc(C4CC4)cn3)C[C@H]2C1 (stereo partly drawn) [Example 207, N-{2-[(7R,8aS)-7-[(5-cyclopropylpyrazin-2-yl)oxy]hexahydropyrrolo[1,2-a]pyrazin-2(1H)-yl]-2-oxo-1-[4-(trifluoromethyl)phenyl]ethyl}-2,2,2-trifluoroacetamide]
1350 nM	O=C(c1cccc(OC(F)(F)F)c1)N1CCN2C[C@H](Oc3cnc(C4CC4)cn3)C[C@H]2C1 [Example 81, [(7R,8aS)-7-[(5-cyclopropylpyrazin-2-yl)oxy]hexahydropyrrolo[1,2-a]-pyrazin-2(1H)-yl][3-(trifluoromethoxy)phenyl]methanone]
6510 nM	O=C(c1cccc(N2CCCCC2)c1)N1CCN2C[C@H](Oc3cnc(C4CC4)cn3)C[C@H]2C1 [Example 129, [(7R,8aS)-7-[(5-cyclopropylpyrazin-2-yl)oxy]hexahydropyrrolo[1,2-a]-pyrazin-2(1H)-yl][3-(piperidin-1-yl)phenyl]methanone]
5260 nM	CN[C@H](CC(C)C)C(=O)N1CCN2C[C@H](Oc3cnc(C4CC4)cn3)C[C@H]2C1 [Example 185, (2R)-1-[(7R,8aS)-7-[(5-cyclopropylpyrazin-2-yl)oxy]hexahydropyrrolo[1,2-a]pyrazin-2(1H)-yl]-4-methyl-2-(methylamino)pentan-1-one]
4200 nM	O=C(c1cc(F)cc(C(F)(F)F)c1)N1CCN2C[C@H](Oc3cnc(C4CC4)cn3)C[C@H]2C1 [Example 70, [(7R,8aS)-7-[(5-cyclopropylpyrazin-2-yl)oxy]hexahydropyrrolo[1,2-a]-pyrazin-2(1H)-yl][3-fluoro-5-(trifluoromethyl)phenyl]methanone]
970 nM	CC(C)c1cccc(C(=O)N2CCN3C[C@H](Oc4cnc(C5CC5)cn4)C[C@H]3C2)c1 [Example 122, [(7R,8aS)-7-[(5-cyclopropylpyrazin-2-yl)oxy]hexahydropyrrolo[1,2-a]-pyrazin-2(1H)-yl](3-isopropylphenyl)methanone]
2810 nM	O=C(CCCC(F)(F)F)N1CCN2C[C@@H](Nc3cccc(C(F)(F)F)n3)C[C@H]2C1 [Example 28, 5,5,5-trifluoro-1-[(7S,8aS)-7-{[6-(trifluoromethyl)pyridin-2-yl]amino}-hexahydropyrrolo[1,2-a]pyrazin-2(1H)-yl]pentan-1-one]
1220 nM	O=C(C(O)c1cccc(C(F)(F)F)c1)N1CCN2C[C@H](Oc3cnc(C4CC4)cn3)C[C@H]2C1 (stereo partly drawn) [Example 145, 1-[(7R,8aS)-7-[(5-cyclopropylpyrazin-2-yl)oxy]hexahydropyrrolo[1,2-a]-pyrazin-2(1H)-yl]-2-hydroxy-2-[3-(trifluoromethyl)phenyl]ethanone]
6120 nM	CN[C@H](C(=O)N1CCN2C[C@H](Oc3cnc(C4CC4)cn3)C[C@H]2C1)c1ccc(C(F)(F)F)cc1 [Example 189, (2S)-1-[(7R,8aS)-7-[(5-cyclopropylpyrazin-2-yl)oxy]hexahydropyrrolo[1,2-a]pyrazin-2(1H)-yl]-2-(methylamino)-2-[4-(trifluoromethyl)phenyl]ethanone]
1760 nM	O=C(/C=C/c1cccc(C(F)(F)F)c1)N1CCN2C[C@H](Oc3cnc(C4CC4)cn3)C[C@H]2C1 [Example 153, (2E)-1-[(7R,8aS)-7-[(5-cyclopropylpyrazin-2-yl)oxy]hexahydropyrrolo[1,2-a]pyrazin-2(1H)-yl]-3-[3-(trifluoromethyl)phenyl]prop-2-en-1-one]
1230 nM	NC(C(=O)N1CCN2C[C@H](Oc3cnc(C4CC4)cn3)C[C@H]2C1)c1ccc(C(F)(F)F)cc1 (stereo partly drawn) [Example 206, 2-amino-1-[(7R,8aS)-7-[(5-cyclopropylpyrazin-2-yl)oxy]hexahydro-pyrrolo[1,2-a]pyrazin-2(1H)-yl]-2-[4-(trifluoromethyl)phenyl]ethanone]
1960 nM	O=C(c1cccc2c1OC(F)(F)O2)N1CCN2C[C@H](Oc3cnc(C4CC4)cn3)C[C@H]2C1 [Example 136, [(7R,8aS)-7-[(5-cyclopropylpyrazin-2-yl)oxy]hexahydropyrrolo[1,2-a]-pyrazin-2(1H)-yl](2,2-difluoro-1,3-benzodioxol-4-yl)methanone]
1850 nM	O=C(CC(F)(F)F)NC(C(=O)N1CCN2C[C@H](Oc3cnc(C4CC4)cn3)C[C@H]2C1)c1cccc(C(F)(F)F)c1 (stereo partly drawn) [Example 209, N-{2-[(7R,8aS)-7-[(5-cyclopropylpyrazin-2-yl)oxy]hexahydropyrrolo[1,2-a]pyrazin-2(1H)-yl]-2-oxo-1-[3-(trifluoromethyl)phenyl]ethyl}-3,3,3-trifluoropropanamide]
380 nM	Cc1cccc(CN2CCN3C[C@@H](NS(=O)(=O)c4cccc(C(F)(F)F)c4)C[C@H]3C2)c1 [Example 49, N-[(7S,8aS)-2-(3-methylbenzyl)octahydropyrrolo[1,2-a]pyrazin-7-yl]-3-(trifluoromethyl)benzenesulfonamide]

From patent US8669255B2, “Substituted octahydropyrrolo[1,2-a]pyrazines as calcium channel blockers” (AbbVie Inc., priority 2011, dated 2014)
